According to paper PMC12040169 (PLOS Biology, 2025):
Some of the results follow.

Test system: T1, C. trachomatis L2/434/Bu expressing GFP (CTL2-GFP)
T1 construct: L2/434/Bu GFP intracellular growth in HeLa cells
Design: species or system HeLa; C. trachomatis total inclusion area by high-content imaging, normalised to DMSO
Details: total inclusion area; 28.5 h, 10 µM; inhibitor
Method in brief: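 High-content images of fixed, Hoechst-stained infected cultures supply inclusion area and count (growth) plus nuclei number (viability), complementing bulk GFP/resorufin fluorescence. MIC determination is unchanged from the primary assay.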

| Structure (SMILES) | % of control remaining |
| --- | --- |
| COc1ccc(S(=O)(=O)Nc2nnc(C(C)C)s2)cc1 [CBK045525] | 114.624 |
| COc1ccc(C2=CC(c3ccc(C(F)(F)F)cc3)n3nnnc3N2)cc1OC (stereo not shown) [CBK296131] | 92.2312 |
| CC(Sc1ccccn1)C(=O)Nc1ccc(S(N)(=O)=O)cc1 (stereo not shown) [CBK265579] | 96.6015 |
| COc1cc(-c2cn3ccnc3c(NC3CC3)n2)cc(OC)c1OC [CBK066184] | 93.1732 |
| O=c1[nH]c(=O)c2nnc(N/N=C\c3ccc(O)cc3)nc2[nH]1 [CBK263312] | 107.448 |
| O=C(NCCCN1CCOCC1)c1cnc(-c2ccccc2)c(-c2ccncc2)c1 [CBK036664] | 105.191 |
| Cc1ccccc1NC(=O)c1cnn2cccnc12 [CBK288217] | 67.1132 |
| COc1ccc(NC(=S)NCCCN(C)C)cc1 [CBK264292] | 93.472 |
| CCCC/C=C/c1cncc(Nc2cc(OC)c(OC)c(OC)c2)n1 [CBK065155] | 110.006 |
| CCN(CC)C(=O)CN1CCN(c2nccnc2Oc2ccc(OC)c(OC)c2)CC1 [CBK083051T] | 108.3 |
| COc1ccc(-c2ccc3c(c2)C(=O)N2CC[C@H](NC(=O)C4CCCC4)[C@H]2C(=O)N3)cc1 [CBK289330] | 126.774 |
| COc1cccc(C(c2nnnn2C(C)(C)C)N2CCN(c3cccc(Cl)c3)CC2)c1 (stereo not shown) [CBK141669] | 99.3942 |
| CC1(C)CC(NC(=O)c2cc3cccnc3[nH]2)CCO1 (stereo not shown) [CBK305467] | 71.219 |
| N#Cc1c(NC(=O)CSc2nnc(-c3ccncc3)o2)sc2c1CCCC2 [CBK266374] | 111.133 |
| O=C1C2C(c3ccc(F)cc3)NC(c3ccc(F)cc3)C1C(c1ccc(F)cc1)NC2c1ccc(F)cc1 (stereo not shown) [CBK261288] | 87.7473 |
| CC(C)(C)OC(=O)c1cc(C(=O)O)ccc1O [CBK000394] | 16.1414 |
| Cc1cc(-c2cn3cc(C(=O)NCCN(C)C)nc3c(=O)n2C)c(C)o1 [CBK307160] | 73.0426 |
| Cc1ccc(C2(C(=O)N(C)CCN3CCCCC3)CCOCC2)cc1 [CBK281833] | 103.01 |
| CCN(CC)c1cc(N2CCCNCC2)ccc1S(=O)(=O)c1cccc(F)c1 [CBK018509C] | 58.8897 |
| CC(C)(C)OC(=O)N1CCN(c2cc(N)ncn2)CC1 [CBK001963] | 58.8423 |
| COc1ccc(Cc2nc(C(C)(C)C)cs2)cc1 [CBK021497B] | 72.7432 |
| O=C(COc1ccccc1)N1CCN(Cc2ccncc2)CC1 [CBK072595] | 86.8736 |
| CC(C)C(CNCc1ccn(C)c1)c1ccnn1C (stereo not shown) [CBK304822] | 106.14 |
| O=C(Cn1cnnn1)N1CCN(Cc2ccccc2)CC1 [CBK026053] | 100.797 |
| Cc1nc(C)c(CCC(=O)NC2CCSc3c(F)cccc32)c(=O)[nH]1 (stereo not shown) [CBK295601] | 90.1551 |
| Cc1[nH]c(=O)[nH]c(=O)c1N(CCO)CCO [CBK262052] | 99.9342 |

| Structure (SMILES) | % of control remaining |
| --- | --- |
| COc1cc(C(=O)N2CCC3(CCN(C(=O)Cc4c[nH]c5ccccc45)C3)C2)cc(OC)c1OC (stereo not shown) [CBK131448] | 93.0949 |
| Cc1nc(CN2CCC3(CC2)CN(C(=O)C(C)C)c2ccccc23)cs1 [CBK131476] | 102.24 |
| CC(C)[C@@H](CO)Nc1cncc(-c2ccc(O)cc2)n1 [CBK066038] | 79.6617 |
| CC1c2ccsc2CCN1C(=O)c1ccnn1C(C)C (stereo not shown) [CBK282079] | 108.859 |
| Cc1c(-c2cc(C(=O)NC(C)C3CC4CCC3C4)on2)cnn1C (stereo not shown) [CBK281651] | 81.378 |
| O=C(Nc1ccc2n(c1=O)C[C@H]1C[C@@H]2CN(C(=O)Cc2cccs2)C1)c1ccccc1 [CBK288709] | 99.6646 |
| COc1cc(-c2cnc3[nH]c(=O)n([C@@H](CO)C(C)C)c3n2)cc(OC)c1OC [CBK064471] | 120.285 |
| Cc1cc(COc2nc3ccccc3nc2N2CCCC2)no1 [CBK115768] | 87.34 |
| O=C(NC(=S)Nc1ccc(N2CCN(Cc3ccccc3F)CC2)cc1)c1ccco1 [CBK268946] | 114.281 |
| CC(=O)c1ccc(-c2cc(C(=O)NCc3cccc(C(F)(F)F)c3)cnc2-c2ccccc2)s1 [CBK036641] | 99.1291 |
| O=c1[nH]nc(CSCc2ccccc2Cl)[nH]1 [CBK267427] | 86.7377 |
| CC(C)(C)c1ccc(S(=O)(=O)N2CCCC[C@H]2COC(=O)COCC(=O)O)cc1 [CBK200064] | 80.2174 |
| O=C1NN=C(O)C1Cc1ccccc1 (stereo not shown) [CBK067758] | 98.4198 |
| N/C(=N\OC(=O)COc1cccc2ccccc12)c1ccc(Cl)cc1 [CBK263004] | 81.5151 |
| O=C(CCN1CCOCC1)Nc1ccc(Cl)cc1 [CBK263820] | 23.8042 |
| CCOC(=O)C1C2CCC3(CC(=O)c4cc(Cl)ccc4O3)C21 (stereo not shown) [CBK284858] | 89.2323 |
| CC(=O)NC1(c2ccccc2)CCN(CC(O)c2ccccc2)CC1 (stereo not shown) [CBK284819] | 87.7891 |
| CSc1cccc(-c2cnccc2-n2ccnc2)c1 [CBK177155] | 92.1522 |
| CC(C)(C)c1ccc(Oc2ccc(NC(=O)CCCC(=O)O)cc2)cc1 [CBK264339] | 102.639 |
| COc1ccccc1C(=O)Nc1sc2c(c1C(=O)NCc1ccco1)CCCC2 [CBK265105] | 123.564 |
| Cc1ccc(Cc2cnc(NC(=O)C3CNC(=O)N3)s2)cc1F (stereo not shown) [CBK305919] | 44.8293 |
| Cc1c(C(=O)N(C)CC(F)(F)F)nnn1-c1ccc(F)cc1 [CBK282214] | 97.7548 |
| CCCCn1c(NCc2nc3ccccc3n2C)nc2ccccc21 [CBK264177] | 111.589 |
| CC(=O)Nc1ccccc1NC(=O)C(C)Oc1ccc(Cl)cc1Cl (stereo not shown) [CBK263954] | 88.887 |
| C#CCNC(=O)CC[C@H]1CNC(=O)[C@@H]2[C@@H](CCN2Cc2ccc(O)cc2)N1C [CBK289017] | 125.263 |
| CCc1nc2ccc(C(=O)N3CCNC(=O)C3)cn2c1N(CCC(C)C)CCN(C)C [CBK146255] | 97.0645 |
